According to the supplement of paper PMC11417369:
± gives the standard deviation of the averaged measurements. Some of the results follow.

system: PfAP2-LT AP2 domain (GST-tagged); test: gcPBM binding intensity (ln(normalized median fluorescence intensity)); higher = stronger DNA binding
Procedure, shortened: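 Binding intensity is defined as the maximum Masliner-normalised natural-log median intensity across replicate spots for either probe orientation. It was measured on an Agilent 4 × 180k array of primer-extended double-stranded 36-bp intergenic genomic probes and negative controls, to which GST-tagged P. falciparum DNA-binding domains made in E. coli were applied for 1 h in 1× PBS with 1% milk, 0.2 mg/ml BSA, 0.5% salmon testes DNA and 0.03% Triton X-100. Detection was by Alexa488 anti-GST antibody and scanning at 488 nm.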

Sequence	gcPBM binding intensity (ln)
TTATAAATTTTTAATAGTACATAAAATTAAAGGTAA [XGTACX_site760]	8.3 ± 0.41
TCATAAAAAGGAATCTTTAAGATATTTTATAAGCTC [XGTACX_negctrl_site18]	8.39 ± 0.44
TTTCTTTATTTATAATAATTTTTTATTAAAAATAGA [CACACA_negctrl_site1610]	8 ± 0.49
AATAAATGTCTGTTAATGCACACGATATGTCTATAT [CACACA_site2351]	9.2 ± 0.42
AGTGCATAATATTTATGTACGTATCACATATATTTT [XGTACX_site5166]	8.83 ± 0.38
AGTAGTCTGGAGAAAAGTACACAGTATCTGGTAACA [XGTACX_site2034]	8.79 ± 0.57
ACAAATAAAAAAATTACACACATATATAATATATAT [CACACA_site1361]	8.97 ± 0.4
AAAAATAAAATAAAATAAAATAAAAATAAAGAAAAA [CACACA_negctrl_site808]	8.68 ± 0.71
TTAATTCTATACATAAATTATGTTTACATAAAGAAT [GTGCAC_negctrl_site246]	8.38 ± 0.42
TATTAACTCAATAGCGCACACTTTTAATATTTTATA [CACACA_site4973]	8.85 ± 0.45
ATTTGACACGTATATGCACACACCCGTAAGTGTCCA [CACACA_site8891]	9.57 ± 0.33
GTAATTAAGATATATACACACAAAGGCTATTAAATA [CACACA_site6604]	9.08 ± 0.44
TATATAACTACAAGAACACACATATAAATATAAATA [CACACA_site7210]	9.06 ± 0.49
TATTGATAAAAAATATGTACATATATACATATATAT [XGTACX_site3821]	8.9 ± 0.48
ATATATATATATATATGTACGTAAACAAAAATTTAT [XGTACX_site6780]	9.31 ± 0.23
ATGTATCGTAACAAATGTACAAGAGGATGTTTAGAC [XGTACX_site3355]	9.27 ± 0.47
GATATATTTTGTTATGTAGATGTTGGTAGGAATTTT [GTGCAC_negctrl_site485]	8.78 ± 0.37
GTATTTATATGATTAACACACATATGTGGATTAATA [CACACA_site1315]	8.78 ± 0.39
TATTATTTATATGATACACACGTACATATACACATA [CACACA_site9275]	9.06 ± 0.38
CAACAAAAGAAACACACACACACAAACACAAAAAAA [CACACA_site3389]	9.91 ± 0.16
GGATATATTATATGTACACACATATATAACGGATAT [CACACA_site1309]	9.18 ± 0.44
TGTATACCTTAATATACACACATACATATATATATA [CACACA_site8370]	9.14 ± 0.15

Sequence	gcPBM binding intensity (ln)
ATATACATATTTTTGACACACATTAGGAAAATATAT [CACACA_site4123]	8.86 ± 0.41
ATGTAATAAATACTACGTACATATATATGTGTTAAT [XGTACX_site3265]	9.05 ± 0.41
ATATATAAATATAGCATACACACAAAAAAATAAAAT [CACACA_site2332]	9.26 ± 0.52
AAATATATATATATTACACACTATATATTTATTTAT [CACACA_site681]	8.79 ± 0.38
TTCATTAAAACGAATACACACATAAATATATAAAAG [CACACA_site4824]	8.89 ± 0.37
AATTTTATTTAAAGTGCATGTAAAATTAAAACTTTT [TGCATGCA_site989]	8.28 ± 0.43
AAAGACAAAAGGAATTGTACATAATATATAAAATAT [XGTACX_site2923]	9.03 ± 0.44
CACAAAAGTAAGCACGCACACACAACATGAAATAAA [CACACA_site7938]	9.68 ± 0.47
CATTTTTTGTAAAATCGTACATATACATAAAGTGGT [XGTACX_site3423]	8.62 ± 0.35
ATATAAAATATGAGTAGTACATATTTTCTCATCTTA [XGTACX_site8595]	8.59 ± 0.45
GGGAAACGATTTAATACACACACGTATTATATATAT [CACACA_site1160]	9.32 ± 0.28
TATGAATTTATCTACAACATTTGAAATAAATTAAAA [CACACA_negctrl_site79]	8.19 ± 0.33
ATAATGTATATTATTGCACACATATATAAAATTATG [CACACA_site8280]	8.91 ± 0.35
AATATAAATATAAATATAAATATATATATATATATA [TGCATGCA_negctrl_site603]	9.02 ± 0.13
TTTTATAAAAACAAAAACAAAGGCACTTTCTAAAGA [XGTACX_negctrl_site130]	8.32 ± 0.45
TAAATAAATACATACACACACATACCTATATTTATA [CACACA_site7466]	9.52 ± 0.19
TGTATACACATATGTACACACATATAGATGTATATG [CACACA_site7447]	9.07 ± 0.33
ATATAATAATATTATACATGCAAAATATGTTCTTCA [TGCATGCA_site115]	8.69 ± 0.41
AGACTATCATTTTTTTAACACACAAAAAAAATAAAA [CACACA_site9173]	8.63 ± 0.43
ATCGCATATACATTATATTTTATAATAATTATTTTT [GTGCAC_negctrl_site48]	8.84 ± 0.49
TATTTTTTTATTTATTGTACTTTAAAAAAAATTAAA [XGTACX_site6167]	8.16 ± 0.5
AATACACACCTGTGGGTGCTTATAATAAGCCACAAA	8.95 ± 0.45
